From PMC9800311
Where two headings read alike, the source gives them in different places. These are yes or no findings as the source states them, for the method shown. In cells and extracts the contact can be indirect. Some results given as binding are weak or reduced against the parent protein; the word gives no strength. For part of these data: Where a sequence is shown, tags or fusion partners need not be part of it.

Amino acid sequences for entries named in this document (tags omitted). A change or cut given only in a name is not applied to a line headed by its entry.
UniProt P60881: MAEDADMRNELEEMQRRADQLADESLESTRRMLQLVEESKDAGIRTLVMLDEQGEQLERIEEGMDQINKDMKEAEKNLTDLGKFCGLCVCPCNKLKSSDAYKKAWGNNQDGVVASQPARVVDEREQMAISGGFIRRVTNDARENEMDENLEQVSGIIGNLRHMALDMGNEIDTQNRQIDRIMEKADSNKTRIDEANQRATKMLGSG
UniProt Q80TN5: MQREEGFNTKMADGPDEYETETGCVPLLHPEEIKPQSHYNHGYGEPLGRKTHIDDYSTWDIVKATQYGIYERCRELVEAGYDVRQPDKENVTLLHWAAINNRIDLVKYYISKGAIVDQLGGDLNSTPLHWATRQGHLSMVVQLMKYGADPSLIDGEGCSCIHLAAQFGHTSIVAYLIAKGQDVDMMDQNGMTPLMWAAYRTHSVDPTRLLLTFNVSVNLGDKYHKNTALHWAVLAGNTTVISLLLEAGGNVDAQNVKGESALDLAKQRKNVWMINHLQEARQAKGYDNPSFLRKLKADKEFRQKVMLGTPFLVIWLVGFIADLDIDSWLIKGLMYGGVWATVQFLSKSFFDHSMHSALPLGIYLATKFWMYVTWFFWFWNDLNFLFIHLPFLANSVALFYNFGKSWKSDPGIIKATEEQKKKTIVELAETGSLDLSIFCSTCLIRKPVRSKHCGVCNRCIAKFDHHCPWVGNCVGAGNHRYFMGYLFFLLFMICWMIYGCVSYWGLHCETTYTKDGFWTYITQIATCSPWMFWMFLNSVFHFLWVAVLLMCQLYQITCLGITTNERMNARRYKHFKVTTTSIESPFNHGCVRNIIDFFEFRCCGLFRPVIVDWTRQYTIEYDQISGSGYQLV

Tests used:
Test in all cases: co-IP; EGFP-tagged substrate protein and HA-tagged zDHHC enzyme cotransfected in HEK293T; lysate (PBS, 0.5% Triton X-100, protease inhibitors) incubated with GFP-Trap beads at least 1 h at 4 °C, washed in PBS; coprecipitated HA-zDHHC detected by immunoblot
[1] = biological target: T1, EGFP-tagged Spry2 WT (Sprouty-2) (mouse) (UniProt Q9QXV8)
T1 sequence: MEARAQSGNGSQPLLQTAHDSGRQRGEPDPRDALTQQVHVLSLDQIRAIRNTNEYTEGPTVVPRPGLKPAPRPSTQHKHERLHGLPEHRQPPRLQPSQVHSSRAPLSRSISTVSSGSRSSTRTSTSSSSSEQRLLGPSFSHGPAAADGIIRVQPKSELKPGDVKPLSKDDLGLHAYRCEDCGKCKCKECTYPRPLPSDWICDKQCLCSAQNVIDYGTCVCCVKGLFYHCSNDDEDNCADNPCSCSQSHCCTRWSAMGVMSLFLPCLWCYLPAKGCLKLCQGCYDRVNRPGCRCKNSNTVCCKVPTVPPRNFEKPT

[2] = biological target: T2, EGFP-tagged SPRED3 296 to 410 (isolated SPR domain) (UniProt Q2MJR0)
T2 sequence: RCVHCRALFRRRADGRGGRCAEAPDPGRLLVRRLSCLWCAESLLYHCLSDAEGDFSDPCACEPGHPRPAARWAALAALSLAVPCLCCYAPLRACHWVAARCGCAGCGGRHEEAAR

[3] = biological target: T3, EGFP-tagged SPRED3 WT (UniProt Q2MJR0)
T3 sequence: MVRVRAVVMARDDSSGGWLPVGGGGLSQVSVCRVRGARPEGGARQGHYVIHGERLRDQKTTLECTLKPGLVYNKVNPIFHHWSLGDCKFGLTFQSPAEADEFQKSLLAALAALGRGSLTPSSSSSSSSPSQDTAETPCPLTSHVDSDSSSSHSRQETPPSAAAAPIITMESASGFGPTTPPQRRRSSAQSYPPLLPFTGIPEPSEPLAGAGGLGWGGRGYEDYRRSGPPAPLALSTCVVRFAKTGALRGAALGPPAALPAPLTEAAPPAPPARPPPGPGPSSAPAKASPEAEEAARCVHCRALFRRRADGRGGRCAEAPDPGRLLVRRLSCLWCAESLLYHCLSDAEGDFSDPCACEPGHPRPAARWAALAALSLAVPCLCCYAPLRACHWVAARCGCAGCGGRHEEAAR

[4] = biological target: EGFP-tagged SNAP25 (synaptosomal-associated protein of 25 kDa) (UniProt P60881)
[5] = biological target: T3, EGFP-tagged SPRED3 WT; remark: listed apart in the source

Question: With “HA-tagged zDHHC17 WT (aa 11-632) (from UniProt Q80TN5 11-632) (enzyme)” as the molecule, how does the binding [1] read?
Answer: The binding was “binds”.

Question: And the binding [2]?
Answer: Its binding is “binds”.

Question: What about the binding [3] of the same molecule?
Answer: Its binding is “binds”.

Question: How did the binding [1] turn out when “HA-tagged zDHHC17 ΔAnk (aa 287-632; ankyrin repeat domain removed) (from UniProt Q80TN5 287-632) (domain or fragment)” was run?
Answer: Its binding is “binds weakly”.

Question: What about the binding [4] of the same molecule?
Answer: The binding was “no binding”.

Question: What about the binding [2] of the same molecule?
Answer: Its binding is “binds”.

Question: What about the binding [3] of the same molecule?
Answer: Its binding is “binds”.

Question: Which binding [3] does the source give for “HA-tagged zDHHC17 ΔC (aa 11-569; C-terminal end removed) (from UniProt Q80TN5 11-569) (domain or fragment)” here?
Answer: Its binding is “binds”.

B1: HA-tagged zDHHC7 WT (enzyme, UniProt Q91WU6 1-308)
chain: MQPSGHRLRDIEHHPLLTDNDNYDSASSSSSETDMADRVWFIRDGCGMVCAVMTWLLVVYADFVVTFVMLLPSKDFWYSVVNGVLFNCLAVLALSSHLRTMLTDPGAVPKGNATKEYMESLQLKPGEVIYKCPKCCCIKPERAHHCSICKRCIRKMDHHCPWVNNCVGEKNQRFFVLFTMYIALSSVHALILCGLQFISCVRGQWTECSDFSPPITVILLVFLCLEGLLFFTFTAVMFGTQIHSICNDETEIERLKSEKPTWERRLRWEGMKSVFGGPPSLLWMNPFVGFRLRRLQMRTRKGGPEFSV
Question: For B1, which binding [5] is on record?
Answer: Its binding is “binds weakly”.
